Data reported in PMC4336329 (PLoS ONE, 2015).
About 14,000 (4.5%) of roughly 310,000 compounds showed an effect of 50% or more. The effect is printed as a negative number. This is one part of the list.

These compounds were tested against human ether-à-go-go-related gene (hERG) potassium channel (human, UniProt Q12809) (assay: primary screen, population patch clamp on CHO cells stably expressing hERG).
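Further: peak tail current of the secondary pulse compared with the same well before compound.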

Chain of human ether-à-go-go-related gene (hERG) potassium channel (Q12809 whole entry, looked up): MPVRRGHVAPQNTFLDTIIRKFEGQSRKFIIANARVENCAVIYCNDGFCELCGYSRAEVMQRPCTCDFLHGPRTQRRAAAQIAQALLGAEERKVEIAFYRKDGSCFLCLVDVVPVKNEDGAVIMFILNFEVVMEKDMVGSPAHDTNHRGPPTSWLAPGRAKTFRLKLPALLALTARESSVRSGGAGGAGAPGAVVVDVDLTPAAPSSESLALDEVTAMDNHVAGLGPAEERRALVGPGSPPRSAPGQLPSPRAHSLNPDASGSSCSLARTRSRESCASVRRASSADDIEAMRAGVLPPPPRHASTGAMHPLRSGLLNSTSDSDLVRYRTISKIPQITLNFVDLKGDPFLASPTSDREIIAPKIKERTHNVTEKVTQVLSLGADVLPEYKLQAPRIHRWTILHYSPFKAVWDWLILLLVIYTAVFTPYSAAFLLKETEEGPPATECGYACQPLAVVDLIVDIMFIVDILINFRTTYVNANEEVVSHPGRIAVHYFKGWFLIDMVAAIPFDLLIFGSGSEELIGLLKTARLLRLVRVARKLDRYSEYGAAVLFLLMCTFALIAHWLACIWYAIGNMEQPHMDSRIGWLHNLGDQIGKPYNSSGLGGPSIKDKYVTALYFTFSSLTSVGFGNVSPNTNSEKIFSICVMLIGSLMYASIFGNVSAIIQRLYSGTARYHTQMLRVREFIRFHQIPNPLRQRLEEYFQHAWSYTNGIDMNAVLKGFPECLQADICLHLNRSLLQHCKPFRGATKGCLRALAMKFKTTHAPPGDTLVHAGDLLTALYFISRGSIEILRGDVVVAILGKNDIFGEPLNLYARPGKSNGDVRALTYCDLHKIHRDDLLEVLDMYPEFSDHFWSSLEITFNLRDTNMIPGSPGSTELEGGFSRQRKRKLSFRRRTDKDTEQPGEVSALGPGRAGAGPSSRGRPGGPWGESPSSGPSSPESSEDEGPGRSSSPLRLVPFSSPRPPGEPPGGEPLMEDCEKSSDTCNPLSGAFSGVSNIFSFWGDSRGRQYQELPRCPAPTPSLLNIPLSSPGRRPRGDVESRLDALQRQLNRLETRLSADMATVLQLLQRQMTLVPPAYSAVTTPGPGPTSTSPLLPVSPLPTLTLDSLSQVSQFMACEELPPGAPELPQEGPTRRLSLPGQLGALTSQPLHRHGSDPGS

Structure (SMILES) | hERG current change (%, negative = inhibition) at 10uM [%]
CC1=Nn2c(nnc2-c2ccccc2)SC1 | 1.57
O=c1cc[nH]c2c1ccc1cccnc12 | 21.5
O=C(Nc1ccc(S(=O)(=O)Nc2ncccn2)cc1)c1ccccc1 | 16.6
Cc1csc2nc(CNC(=O)C3CC=CCC3C(=O)O)cn12 (centres unmarked) | 18.9
COc1ccc2nc(SCC(=O)O)nc(C)c2c1 | 5.94
NS(=O)(=O)c1ccc(CCNS(=O)(=O)c2ccc3c(c2)NC(=O)CO3)cc1 | 14.8
CCN(CC)CCN(Cc1cc2cc(C)ccc2[nH]c1=O)C(=S)Nc1ccccc1 | -50.6
CCN(CC)CCN(C(=O)c1ccc2c(c1)OCCO2)c1nc2cc3c(cc2s1)OCO3.Cl | -67.3
O=C1NC2(CCCCC2)CO1 | 16.1
CCCCn1c(=NC(=O)c2cccnc2)c(C#N)cc2c(=O)n3cccc(C)c3nc21 | -10.6
COc1ccc(C(C)NC(=O)CC23CC4CC(CC(C4)C2)C3)cc1 (centres unmarked) | -28.9
CC1Cc2cc(S(=O)(=O)N3CCC(C(=O)Nc4ccccn4)CC3)ccc2N1C(=O)C1CCC1 (centres unmarked) | -10.5
CCN(CC)C(=O)C(=O)c1cn(CC(=O)N2CCc3ccccc3C2)c2ccccc12 | -14.4
CC(=O)OC1CC(C)(C)N(OC(=O)c2ccc(N)cc2)C(C)(C)C1 | -4.68
O=c1c2sccc2nc(SCc2cc(=O)n3cc(Br)ccc3n2)n1Cc1ccccn1 | -42.4
Brc1cc2c(cc1Cn1c(-c3cncs3)nc3ccccc31)OCO2 | 23.1
O=C(OCn1nnc2ccccc2c1=O)C1CCN(S(=O)(=O)c2cccs2)CC1 | -17.9
O=C(NCCSCc1ccc(Cl)cc1Cl)c1ccc(CN2CCOCC2)cc1 | -54.6
CCc1nnc(NC(=O)CN2CCN(CC)CC2)s1 | 6.9
CC(=O)NCCC(=O)Nc1sc2c(c1-c1nc3ccccc3[nH]1)CCCC2 | 1.92
CNC(=O)C(C)Sc1ccc(S(=O)(=O)N2CCOCC2)cn1 (centres unmarked) | -0.356
O=C(Cn1c(=O)oc2ccccc21)N1CCN(c2ccccc2)CC1 | 4.02
Clc1ccc(OCCn2ccnc2)c(Cl)c1 | -18.9

Structure (SMILES) | hERG current change (%, negative = inhibition) at 10uM [%]
Br.O=C(CSc1nc2ccccc2c(=O)n1-c1ccccc1)c1cccc([N+](=O)[O-])c1 | -7.38
CCOC(=O)c1nn(-c2ccc(F)cc2)c(=O)cc1OCC(=O)N1CCN(c2ccccc2)CC1 | -15.6
O=C(c1ccccc1)c1ccc(C(=O)N2CCOCC2)cc1 | 0.571
O=C(NC1CCN(Cc2ccccc2)CC1)c1ccccc1F | -23.7
COC(C/C=C\C(=O)[C@H](C)OCc1ccccc1)OC | 9.66
COc1ccc(-n2c(SCC(=O)NCC3CCCO3)nc3c(c2=O)SCC3)cc1 (centres unmarked) | -2.34
COc1ccc2nc(SCC(=O)N3CCNC3=O)[nH]c2c1 | -9.35
O=C(O)c1ccc(NC(=O)C2(c3ccccc3)CCCC2)cc1 | -0.0708
CC(C)[C@H](NC(=O)c1ccco1)C(=O)N(C)Cc1ccc(C(F)(F)F)cc1 | -5.29
Cc1ccc2cc(CN(CC(C)C)C(=O)C3CCCO3)c(=O)[nH]c2c1 (centres unmarked) | -16.2
CCC(CC)NC(=O)c1n[nH]c(=O)c2ccccc12 | 14.5
COCCN(C(=O)COC(=O)/C=C/c1ccccc1Cl)c1c(N)n(Cc2ccccc2)c(=O)[nH]c1=O | 16.1
Cc1ccnc(NC2(C(F)(F)F)N=C3SCCN3C2=O)c1 (centres unmarked) | -0.201
S=C(NCCc1ccccc1)NCc1cccs1 | 2.6
COc1cc(OC)c(NS(=O)(=O)c2ccc3c(c2)NC(=O)CO3)cc1Cl | -6.04
CC(=NCCc1ccccc1)C1=C(O)C(c2ccccc2)OC1=O (centres unmarked) | 5.96
CC(=O)c1c(C)cc(C)c(CSc2nnc(-c3ccco3)o2)c1C | -32
CCOC1(/N=C(\C)NS(=O)(=O)c2ccc(Cl)cc2)C(C)=CC(=O)C=C1C | 25.2
Cc1csc2sc(-c3ccnc(SCC(=O)NCc4ccccc4)n3)c(C)c12 | 13.3
Cc1cc(SCC(=O)N2CCN(C(=O)c3ccco3)CC2)c(C)cc1Br | -62.3
COc1cc(C2CC(c3ccccc3)=NN2c2ccccc2)ccc1OCC(=O)O (centres unmarked) | 34.2
O=C(c1ccc2snnc2c1)N1CCSCC1 | 4.21
CCCC(=O)NC(=S)Nc1cccc(NC(=O)c2ccc(Cl)cc2Cl)c1 | 11.6

Structure (SMILES) | hERG current change (%, negative = inhibition) at 10uM [%]
COc1ccc(S(=O)(=O)N2CCOC2CNC(=O)C(=O)NCCN2CCOCC2)cc1OC (centres unmarked) | 15
Cc1ccc(O)c(NC(=O)c2ccco2)c1 | 0.29
COc1ccc(OC)c2nc(-c3ccncc3)ccc12 | 13.3
CCc1ccc(NS(=O)(=O)c2ccc3[nH]cc(C(=O)NCC4CCCO4)c(=O)c3c2)cc1 (centres unmarked) | 15.4
O=C(Nc1ccc(S(=O)(=O)N2CCCc3ccccc32)cc1)C1CCCO1 (centres unmarked) | -42
Cc1ccc(C(=O)N/C(=C\c2ccco2)C(=O)NCCN2CCCCC2)cc1C | -60.1
COC(=O)c1cc(C(=O)CSc2nc(C)cc(C)n2)ccc1O | -2.05
CCN(CC)S(=O)(=O)c1cc(NC(=O)C(C)OC(=O)c2[nH]c(C)c(C(C)=O)c2C)ccc1C (centres unmarked) | 8.42
Cc1cccc(C)c1NC(=O)CNc1ncnc2sc(C)c(C)c12 | 17.8
O=C(C(=O)N1CCOCC1)c1cn(Cc2ccccc2)c2ccccc12 | -17.3
S=C(NCCNCc1ccccc1)NC1CCCCC1 | 1.72
Cc1nnc(SCc2cccc(CSc3nnc(C)s3)c2)s1 | -13.4
Cn1c(=O)c2c(ncn2CC(=O)N2CCc3ccccc3C2)n(C)c1=O | -0.268
O=C(COc1ccccc1)N1CCN(C2CCCC2)CC1.O=C(O)C(=O)O | -13.2
CCOc1cc(CN2CCN(CCOCCO)CC2)ccc1OC | 13.1
COc1ccc(Cn2c(=O)sc3ccccc32)cc1 | -17.8
Cc1cc(C)n(-c2cc(C)c(C)cc2Br)n1 | 2.72
COc1ccc(OCCSc2nnc3c(Cl)cc(Cl)cn23)cc1 | -40.1
O=C(NCc1ccco1)C(=O)NCC1OCCCN1S(=O)(=O)c1ccc(Cl)cc1 (centres unmarked) | -4.41
O=C(OC1CCN(c2ccc([N+](=O)[O-])cc2)CC1)c1ccccc1 | -5.88
CCc1nnc(NS(=O)(=O)c2ccc(NC(=S)NC(=O)c3ccc(OC)c(OC)c3)cc2)s1 | 12.4
CCNC(=O)c1c(NC(=O)c2cc(-c3cc(C)ccc3O)n[nH]2)sc2c1CCCC2 | 30.5
Cc1ccc(NC(=O)C2CCCN2C(=O)OCc2ccccc2)cc1C (centres unmarked) | -2.99

Structure (SMILES) | hERG current change (%, negative = inhibition) at 10uM [%]
O=C(N/N=C/c1ccoc1)c1ccccc1Br | 16.9
Cc1cccc(C(=O)NCC(C)NC(=O)c2cccc(C)c2)c1 (centres unmarked) | 9.1
O=C(COc1ccccc1[N+](=O)[O-])OC1CCS(=O)(=O)C1 (centres unmarked) | 9.26
CNS(=O)(=O)c1ccc(NC(=O)c2cc(-c3ccncc3)nc3ccc(Cl)cc23)cc1 | 14.7
COc1nc(-c2ccccc2)ncc1S(=O)(=O)c1ccccc1 | 37.3
c1ccn2cc(-c3ccc4c(c3)OCO4)cc2c1 | 25.7
O=C(CSc1nnnn1C1CCCCC1)Nc1nc2c(s1)CCCC2 | -8.47
Cn1cccc1Cc1nnc(SCC(=O)NC2CCCC2)n1CCc1ccccc1 | -13
CC(Oc1ccc(C#N)cc1)C(=O)NC1CCCC1 (centres unmarked) | -12.9
CCOC(=O)C1CCN(C(=O)C(=O)Nc2ccc3nc4n(c(=O)c3c2)CCCCC4)CC1 | 1.99
Cc1nc(C)c(C(=O)C2=C(O)C(=O)N(CCN(C)C)C2c2ccccc2)s1 (centres unmarked) | 13.4
COc1ccccc1-c1nnc(SCC(=O)Nc2cc(C)on2)o1 | 9.62
O=C(Cn1ccc([N+](=O)[O-])n1)c1ccccc1 | 7.16
Cc1ccc(S(=O)(=O)N2CCN(C(=O)N3CCOCC3)C2C)cc1 (centres unmarked) | -6.82
CCN1CCCC1CNC(=O)C1CCN(Cc2nc(-c3cccc(Br)c3)oc2C)CC1 (centres unmarked) | -9.4
CCOC(=O)COc1ccc(Br)cc1/C=C/c1[nH]c(=O)[nH]c(=O)c1[N+](=O)[O-] | 8
CC(C)(C)NC(=O)NC(=O)Cn1cc(C(F)(F)F)ccc1=O | -3.4
COc1ccc(CC(=O)NNC(=O)c2ccccn2)cc1 | 3.86
O=C(c1ccc(CN2CCc3ccccc3C2)cc1)N1CCN(c2ccc(F)cc2)CC1 | -68.6
CN(C)c1ccc(/C=N\Nc2nc(-c3ccccc3)cc(=O)[nH]2)cc1 | -10.6
